According to patent US5654451A, “Amino acids and peptides having modified C-terminals and modified N-terminals” (Magainin Pharmaceuticals Inc., priority 1995, dated 1997):
≈ marks a conversion by molar mass, not a printed value. Part of at least one peptide drawing is inferred or uncertain, most often the ends.

Legend:
Experiment in all cases: Antimicrobial assay (MIC, microtiter broth dilution)
Format in all cases: cell-based
[1] = test system: C. albicans; details: for MIC C. albicans: Table I; for MIC C. albicans 14053: strain 14053
Protocol: (§1) The procedure for the antimicrobial assay is based upon the guidelines of the National Committee for Clinical Laboratory Standards, Document M7-T2, Volume 8, No. 8, 1988.
(§2) 1-5×10^5 CFUs/ml of either S. aureus ATCC 25923, E. coli ATCC 25922, P. aeruginosa ATCC 27853, or C. albicans were added to the wells in full strength Mueller Hinton broth (BBL 11443) from a mid-log culture. The inoculum is standardized spectrophotometrically at 600 nm and is verified by colony counts. The plates are incubated for 16-20 hours at 37° C., and the minimal inhibitory concentrations (MIC) for the compounds are determined. Minimal inhibitory concentration is defined as the lowest concentration of amino acid or peptide which produces a clear well in the microtiter plate.

[2] = test system: E. coli; details: for MIC E. coli: Table I, E. coli ATCC 25922; for MIC E. coli 25922: strain 25922 (Tables II-V)
Protocol: as §1, §2

[3] = test system: P. aeruginosa; details: for MIC P aeruginosa: Table I, P. aeruginosa ATCC 27853; for MIC P. aeruginosa 27853: strain 27853 (Tables II-V)
Protocol: as §1, §2

[4] = test system: S. aureus; details: for MIC S. aureus: Table I, S. aureus ATCC 25923; for MIC S. aureus 29213: strain 29213 (Tables II-V)
Protocol: as §1, §2

[5] = test system: E. faecium; details: strain 26143
[6] = test system: E. faecalis; details: strain 19052
[7] = test system: C. difficile; details: for MIC C. difficile P324: strain P324
[8] = test system: B. fragilis; details: strain 25285
[9] = test system: L. fermentum; details: strain 23271
[10] = test system: P. gingivalis; details: for MIC P. gingivalis A7A1-28: strain A7A1-28
[11] = test system: C. tropicalis; details: for MIC C. tropicalis 13803: strain 13803; for MIC C. tropicalis 28707: strain 28707
[12] = test system: C. parapsilosis; details: for MIC C. parapsilosis 10232: strain 10232; for MIC C. parapsilosis 22109: strain 22109
[13] = test system: C. kefyr; details: strain 28838
[14] = test system: T. mentagrophytes; details: strain 18748
[15] = test system: T. rubrum; details: strain 36262
[16] = test system: M. canis; details: strain 11621
[17] = test system: E. floccosum; details: strain 52062
[18] = test system: P. mirabilis
[19] = test system: S. marcescens

N=C(N)NCCC[C@H](N)C(=O)N[C@@H](Cc1ccccc1)C(=O)NCCCCCCCCCCCCNC(=O)[C@H](Cc1ccccc1)NC(=O)[C@@H](N)CCCNC(=N)N [Compound 9, 1,12-[di-arginyl-phenylalanyl]diaminododecane]
MIC C. albicans [1]: 32 µg/mL (≈ 39.6 µM)
MIC C. albicans 14053 [1]: 32 µg/mL (≈ 39.6 µM)
MIC E. coli [2]: 16 µg/mL (≈ 19.8 µM)
MIC E. coli 25922 [2]: 16,32 μg/ml
MIC P aeruginosa [3]: 64 µg/mL (≈ 79.3 µM)
MIC P. aeruginosa 27853 [3]: 64 µg/mL (≈ 79.3 µM)
MIC S. aureus [4]: 4 µg/mL (≈ 4.96 µM)
MIC S. aureus 29213 [4]: 4,8 μg/ml
MIC E. faecium 26143 [5]: 8 µg/mL (≈ 9.91 µM)
MIC E. faecalis 19052 [6]: 64 µg/mL (≈ 79.3 µM)
MIC C. difficile P324 [7]: 8 µg/mL (≈ 9.91 µM)
MIC B. fragilis 25285 [8]: 8 µg/mL (≈ 9.91 µM)
MIC L. fermentum 23271 [9]: 2 µg/mL (≈ 2.48 µM)
MIC P. gingivalis 9-14K-1 ([10]; strain 9-14K-1): 16 µg/mL (≈ 19.8 µM)
MIC P. gingivalis 381 ([10]; strain 381): 8 µg/mL (≈ 9.91 µM)
MIC P. gingivalis A7A1-28 [10]: 16 µg/mL (≈ 19.8 µM)
MIC P. gingivalis FAY-19M-1 ([10]; strain FAY-19M-1): 8 µg/mL (≈ 9.91 µM)
MIC P. gingivalis W50 ([10]; strain W50): 16 µg/mL (≈ 19.8 µM)
MIC C. tropicalis 13803 [11]: 4 µg/mL (≈ 4.96 µM)
MIC C. tropicalis 28707 [11]: 1,2 μg/ml
MIC C. parapsilosis 10232 [12]: 128 µg/mL (≈ 159 µM)
MIC C. parapsilosis 22109 [12]: 2,4 μg/ml
MIC C. kefyr 28838 [13]: 2,4 μg/ml
MIC T. mentagrophytes 18748 [14]: 16 µg/mL (≈ 19.8 µM)
MIC T. rubrum 36262 [15]: 16 µg/mL (≈ 19.8 µM)
MIC M. canis 11621 [16]: 64 µg/mL (≈ 79.3 µM)
MIC E. floccosum 52062 [17]: 32 µg/mL (≈ 39.6 µM)
MIC P. mirabilis 23147 ([18]; strain 23147): > 256 µg/mL
MIC P. mirabilis 24231 ([18]; strain 24231): > 256 µg/mL
MIC S. marcescens 18963 ([19]; strain 18963): > 256 µg/mL
MIC S. marcescens 23420 ([19]; strain 23420): > 256 µg/mL

N=C(N)NCCC[C@@H](N)C(=O)N[C@H](Cc1ccccc1)C(=O)NCCCCCCCCCCCCNC(=O)[C@@H](Cc1ccccc1)NC(=O)[C@H](N)CCCNC(=N)N [Compound 9-D]
MIC C. albicans [1]: 16 µg/mL (≈ 19.8 µM)
MIC C. albicans 14053 [1]: 16 µg/mL (≈ 19.8 µM)
MIC E. coli [2]: 8 µg/mL (≈ 9.91 µM)
MIC E. coli 25922 [2]: 8 µg/mL (≈ 9.91 µM)
MIC P aeruginosa [3]: 16 µg/mL (≈ 19.8 µM)
MIC P. aeruginosa 27853 [3]: 16 µg/mL (≈ 19.8 µM)
MIC S. aureus [4]: 4 µg/mL (≈ 4.96 µM)
MIC S. aureus 29213 [4]: 4 µg/mL (≈ 4.96 µM)
MIC E. faecium 26143 [5]: 8 µg/mL (≈ 9.91 µM)
MIC E. faecalis 19052 [6]: 64 µg/mL (≈ 79.3 µM)
MIC C. difficile P324 [7]: 4 µg/mL (≈ 4.96 µM)
MIC C. difficile TTU614 ([7]; strain TTU614): 32 µg/mL (≈ 39.6 µM)
MIC B. fragilis 25285 [8]: 16 µg/mL (≈ 19.8 µM)
MIC L. fermentum 23271 [9]: 2 µg/mL (≈ 2.48 µM)
MIC P. gingivalis A7A1-28 [10]: 16 µg/mL (≈ 19.8 µM)
MIC C. tropicalis 13803 [11]: 2 µg/mL (≈ 2.48 µM)
MIC C. tropicalis 28707 [11]: 1 µg/mL (≈ 1.24 µM)
MIC C. parapsilosis 10232 [12]: 128 µg/mL (≈ 159 µM)
MIC C. parapsilosis 22109 [12]: 4 µg/mL (≈ 4.96 µM)
MIC C. kefyr 28838 [13]: 2 µg/mL (≈ 2.48 µM)
MIC T. mentagrophytes 18748 [14]: 8 µg/mL (≈ 9.91 µM)
MIC T. rubrum 36262 [15]: 8 µg/mL (≈ 9.91 µM)
MIC M. canis 11621 [16]: 16 µg/mL (≈ 19.8 µM)
MIC E. floccosum 52062 [17]: 16 µg/mL (≈ 19.8 µM)
